{"source": "the supplement of paper PMC9446081", "note": "Out of some 39,000 compounds screened, about 220 (0.56%) showed activity. Some of the results follow.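 Note: static incubation at 37 °C against the wild-type strain, values averaged over two biological replicates.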", "data": [{"tested_on": "Escherichia coli K-12 BW25113", "assay": "relative growth (OD600 normalised to plate interquartile mean) (fraction); higher = less growth inhibition, active = 0.2 or less", "conditions": "50 µM; LB; incubation time: overnight (16-24 h)", "values": [{"smiles": "CC1(C)O[C@@H]2[C@@H](CO[C@@]3(COS(N)(=O)=O)OC(C)(C)O[C@@H]23)O1", "relative growth": "inactive: 0.998"}, {"smiles": "O=C(C[C@H]1CC[C@H]2[C@@H](COC[C@H](O)CN2C(=O)C2CC2)O1)NCc1ccncc1", "relative growth": "inactive: 0.991"}, {"smiles": "COc1cc2c(cc1OC)CN(C(=O)[C@H]1[C@@H]3C(=O)O[C@@H](c4ccccc4)[C@@H](c4ccccc4)N3[C@@H](c3ccc(O)cc3)[C@]13C(=O)Nc1ccccc13)CC2", "relative growth": "inactive: 0.996"}, {"smiles": "O=C(C[C@@H]1C[C@H]2c3cc(NC(=O)C4CCOCC4)ccc3O[C@H]2[C@@H](CO)O1)NCc1cc(F)ccc1F", "relative growth": "inactive: 1.01"}, {"smiles": "COc1cccc(S(=O)(=O)Nc2ccc3c(c2)[C@H]2C[C@H](CC(=O)N4CCCCC4)O[C@H](CO)[C@H]2O3)c1", "relative growth": "inactive: 0.996"}, {"smiles": "C[C@@H]1CCCCO[C@H](CN(C)Cc2ccc(C(F)(F)F)cc2)[C@@H](C)CN([C@H](C)CO)C(=O)c2cc(NC(=O)Nc3ccc(F)cc3)ccc2O1", "relative growth": "inactive: 0.988"}, {"smiles": "Cn1c(=O)c2[nH]c(NCCN3CCOCC3)nc2n(C)c1=O", "relative growth": "inactive: 1.03"}, {"smiles": "CN(C)C(=O)c1ccc(-c2cccc(-c3nc(C(=O)NC4CCCC4)cc4c3[C@@H](CCO)N([S@](=O)C(C)(C)C)C4)c2)cc1", "relative growth": "inactive: 0.996"}, {"smiles": "C[C@@H]1CN([C@H](C)CO)C(=O)c2cccc(NC(=O)c3ccc(-c4nccs4)cc3)c2O[C@@H]1CN(C)Cc1ccc(C(=O)Nc2ccccc2N)cc1", "relative growth": "inactive: 1.02"}, {"smiles": "C=CC(C1=CC(=O)C(OC)=CC1=O)c1ccc(O)cc1", "note": "(stereo unspecified)", "relative growth": "inactive: 1.06"}, {"smiles": "Cn1c(=O)c2[nH]c(-[n+]3ccc(C(=O)O)cc3)nc2n(C)c1=O", "relative growth": "inactive: 1.03"}, {"smiles": "O[C@@H]1N[C@H](O)c2ccccc21", "relative growth": "inactive: 1.02"}, {"smiles": "C[C@@H]1CN([C@H](C)CO)C(=O)Cc2cc(NC(=O)CCN3CCOCC3)ccc2O[C@@H]1CN(C)Cc1ccc(C(=O)O)cc1", "relative growth": "inactive: 0.979"}, {"smiles": "C/C=C/c1cnc2c(c1)C(=O)N([C@H](C)CO)C[C@H](C)[C@@H](CN(C)S(=O)(=O)c1ccc(OC)cc1)O2", "relative growth": "inactive: 1.02"}, {"smiles": "Cc1noc(C)c1NC(=O)Nc1ccc2c(c1)CC(=O)N([C@H](C)CO)C[C@@H](C)[C@H](CN(C)C(=O)Nc1ccc(C(F)(F)F)cc1)O2", "relative growth": "inactive: 1.01"}, {"smiles": "C[C@H]1CN([C@@H](C)CO)C(=O)Cc2cc(NC(=O)Cc3ccccc3)ccc2O[C@H]1CN(C)S(=O)(=O)c1cn(C)cn1", "relative growth": "inactive: 0.967"}, {"smiles": "C[C@H](NC(=O)N(C)C[C@@H]1OCc2ccccc2-c2c(n(C)c3ccccc23)C(=O)N([C@@H](C)CO)C[C@@H]1C)c1ccccc1", "relative growth": "inactive: 1.02"}, {"smiles": "COCC#Cc1ccc([C@@H]2[C@@H](CO)N3C(=O)CN(C(=O)C4CCOCC4)C[C@@H]23)cc1", "relative growth": "inactive: 1"}, {"smiles": "CCOC(=O)Cc1nnc(CC(=O)OCC)[nH]1", "relative growth": "inactive: 0.988"}, {"smiles": "C[C@@H]1CN([C@@H](C)CO)C(=O)c2c(c3ccccc3n2C)-c2ccccc2CO[C@H]1CN(C)Cc1ccc(C(F)(F)F)cc1", "relative growth": "inactive: 1.04"}, {"smiles": "CO/N=C(\\C(=O)N[C@@H]1C(=O)N2C(C(=O)O)=C(C[n+]3ccn4ncccc43)CS[C@H]12)c1nsc(N)n1", "relative growth": "active: 0.0425"}, {"smiles": "C=CCC[C@@H](Cc1ccc(F)cc1)C(=O)O[C@@H](CNC(=O)[C@@H](CC=C)CC(=O)N[C@H](CO)Cc1ccccc1)c1ccccc1", "relative growth": "inactive: 1.06"}, {"smiles": "C[C@@H]1CN([C@H](C)CO)C(=O)Cc2cc(NC(=O)Nc3ccc4c(c3)OCO4)ccc2O[C@@H]1CN(C)S(=O)(=O)c1cn(C)cn1", "relative growth": "inactive: 0.986"}, {"smiles": "Cc1noc(C)c1NC(=O)N(C)C[C@H]1Oc2ccc(NC(=O)Nc3cccc4ccccc34)cc2CC(=O)N([C@H](C)CO)C[C@H]1C", "relative growth": "inactive: 1"}, {"smiles": "COCCN1C(=O)CO[C@H]2CN(S(=O)(=O)c3ccccc3)C[C@@H]21", "relative growth": "inactive: 1.01"}, {"smiles": "Nc1cccn2ncnc12", "relative growth": "inactive: 1.01"}, {"smiles": "Cc1ccc(S[C@]2(C(=O)NCC(F)(F)F)CC(=O)N(Cc3ccccc3C(F)(F)F)[C@@H]2c2ccc(CO)cc2I)cc1", "relative growth": "inactive: 0.978"}, {"smiles": "CNC[C@H]1OCCCC[C@H](C)Oc2ccc(NS(=O)(=O)c3c(C)noc3C)cc2C(=O)N([C@@H](C)CO)C[C@H]1C", "relative growth": "inactive: 0.973"}, {"smiles": "CN(C)CCNC(=O)[C@H]1CN(Cc2cnn(C)c2)Cc2ccnn2C1", "relative growth": "inactive: 1"}, {"smiles": "O=C1CN(c2ccccc2)C=NN1", "relative growth": "inactive: 0.987"}, {"smiles": "O=C(C[C@@H]1C[C@H]2c3cc(NS(=O)(=O)c4ccc(F)cc4)ccc3O[C@H]2[C@@H](CO)O1)NC1CCCC1", "relative growth": "inactive: 0.977"}, {"smiles": "O=C(C[C@H]1CC[C@H]2[C@@H](COC[C@@H](O)CN2C(=O)Nc2ccc(Cl)cc2)O1)NCCc1ccncc1", "relative growth": "inactive: 0.993"}, {"smiles": "C[C@@H]1CN([C@@H](C)CO)C(=O)c2cccc(NC(=O)Nc3ccc4c(c3)OCO4)c2O[C@H]1CN(C)S(=O)(=O)c1cn(C)cn1", "relative growth": "inactive: 1.01"}, {"smiles": "C[C@H](CO)N1C[C@H](C)[C@H](CN(C)C(=O)c2ccccc2)OCCCC[C@H](C)Oc2ccc(NS(=O)(=O)c3cccs3)cc2C1=O", "relative growth": "inactive: 1.01"}, {"smiles": "C[C@H](CO)N1C[C@H](C)[C@@H](CN(C)S(=O)(=O)c2ccccc2F)Oc2ncc(C#Cc3cccnc3)cc2C1=O", "relative growth": "inactive: 0.982"}, {"smiles": "C[C@H](CO)N1C[C@H](C)[C@@H](CN(C)S(=O)(=O)c2ccccc2)Oc2ncc(C#Cc3ccccc3F)cc2C1=O", "relative growth": "inactive: 1.02"}, {"smiles": "CN(C)CC(=O)N[C@H]1CC[C@@H](CCNC(=O)C2CCC2)O[C@H]1CO", "relative growth": "inactive: 0.994"}, {"smiles": "C[C@H](CO)N1C[C@H](C)[C@@H](CN(C)S(=O)(=O)c2ccc(F)cc2)Oc2ccc(NS(=O)(=O)c3cn(C)cn3)cc2CC1=O", "relative growth": "inactive: 1"}, {"smiles": "C=CCC[C@H](Cc1ccc(F)cc1)C(=O)OC[C@@H](NC(=O)[C@H](CC=C)CC(=O)N(CCO)Cc1ccccc1)c1ccccc1", "relative growth": "inactive: 1.06"}, {"smiles": "COc1ccc(S(=O)(=O)Nc2ccc3c(c2)CC(=O)N([C@@H](C)CO)C[C@H](C)[C@@H](CN(C)Cc2ccc(Cl)c(Cl)c2)O3)cc1", "relative growth": "inactive: 1.01"}, {"smiles": "C[C@@H]1CCCCO[C@@H](CN(C)C(=O)Nc2cccc3ccccc23)[C@H](C)CN([C@H](C)CO)C(=O)c2cc(NC(=O)c3ccncc3)ccc2O1", "relative growth": "inactive: 0.993"}]}]}
